{"source": "the supplement of paper PMC10600219", "note": "Counter-ions that a name gives are not always drawn. In all, about 2,800 compounds were measured (“cell viability relative to vehicle”: median about 0.98, lowest 2% from about 0.45 on). Some of the results follow.", "data": [{"system": "NCI-H2228 alectinib-DTP", "assay": "cell viability relative to vehicle (fraction of vehicle); NCI-H2228 is an ALK-positive lung cancer line and DTP means drug-tolerant persister; higher = less growth inhibition", "conditions": "100 nM; treatment time 6 days", "method_in_brief": "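Values give cell viability as a fraction of vehicle-treated cells. Parental and drug-tolerant persister NCI-H2228 cells (persisters made with 1000 nM of a targeted drug for 13 days) were exposed in 384-well plates to the 3114-agent TargetMol anti-cancer compound library at 100 nM, with DMSO as vehicle. ATP was then read after 6 days by the CellTiter-Glo 3D Cell Viability Assay.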", "values": [{"smiles": "CCOC(=O)c1ccc(N2NC(=O)C(=Cc3ccc([N+](=O)[O-])o3)C2=O)cc1", "cell viability": 1.04}, {"smiles": "CS(=O)(=O)Nc1cc(-c2ccc3ncnc(Nc4ccc(F)c(Cl)c4)c3c2)cnc1Cl", "cell viability": 0.997}, {"smiles": "CCNC(=O)c1noc(-c2cc(Cl)c(O)cc2O)c1-c1ccc(OC)cc1", "cell viability": 0.844}, {"smiles": "C[C@@H]1CN(c2c(F)c(N)c3c(=O)c(C(=O)O)cn(C4CC4)c3c2F)C[C@H](C)N1", "note": "[Sparfloxacin]", "cell viability": 1}, {"smiles": "CNCCN(C)Cc1cn[nH]c1-c1ccc(OC2CC(OCCC3CCOCC3)C2)cc1", "note": "(configuration not stated)", "cell viability": 1.05}, {"smiles": "COc1cc2c(cc1O)[C@@H](Cc1ccc(O)c(Oc3ccc(C[C@@H]4c5cc(OC)c(OC)cc5CCN4C)cc3)c1)N(C)CC2", "note": "[Daurisoline]", "cell viability": 1.07}, {"smiles": "CC(C)(C)NS(=O)(=O)c1cncc(-c2cc(F)c3nc(N)nn3c2)c1", "cell viability": 1.03}, {"smiles": "COc1cc2c(=O)c(-c3ccc(O)cc3)coc2cc1O[C@@H]1O[C@H](CO)[C@@H](O)[C@H](O)[C@H]1O", "note": "[Glycitin]", "cell viability": 0.958}, {"smiles": "O=C(O)P(=O)(O)O", "note": "[Foscarnet sodium]", "cell viability": 1.06}, {"smiles": "CCCCCCCCCCCCCCCC[N+](C)(C)CCN(Cc1ccc(OC)cc1)c1ncccn1", "note": "[Thonzonium Bromide]", "cell viability": 0.949}, {"smiles": "O=C1C=C2C=C[C@@H](O)[C@H](O)[C@H]2O1", "note": "[griffonilide]", "cell viability": 1.01}, {"smiles": "COc1cc(OC)cc(N(CCNC(C)C)c2ccc3ncc(-c4cnn(C)c4)nc3c2)c1", "note": "[Erdafitinib]", "cell viability": 0.759}, {"smiles": "CC(=O)c1cc(O)ccc1O", "note": "[2-5-dihydroxyacetophenone]", "cell viability": 1.02}, {"smiles": "CCN(CC)CCCC(C)Nc1c2ccc(Cl)cc2nc2ccc(OC)cc12", "note": "(configuration not stated) [Quinacrine dihydrochloride]", "cell viability": 0.927}, {"smiles": "CN(CCOc1ccc(NS(C)(=O)=O)cc1)CCc1ccc(NS(C)(=O)=O)cc1", "note": "[Dofetilide]", "cell viability": 1.02}, {"smiles": "CNCC(O)c1ccc(O)c(O)c1", "note": "(racemic) [DL-Adrenaline Hydrochloride]", "cell viability": 1.05}, {"smiles": "CC(=O)N1CCN(c2ccc(OCC3COC(Cn4ccnc4)(c4ccc(Cl)cc4Cl)O3)cc2)CC1", "note": "(configuration not stated) [Ketoconazole]", "cell viability": 1.06}, {"smiles": "Cc1[nH]c(/C=C2\\C(=O)Nc3ccccc32)c(C)c1CCC(=O)O", "note": "[Orantinib]", "cell viability": 0.886}, {"smiles": "C1=N/C2=N/c3ccc(OCCN4CCCC4)c(c3)COC/C=C/COCc3cccc(c3)C(=C1)N2", "note": "[Pacritinib]", "cell viability": 1.04}, {"smiles": "COc1ccc2cccc(CCNC(C)=O)c2c1", "note": "[Agomelatine]", "cell viability": 0.797}, {"smiles": "CNc1ncc2cc(-c3cc(NC(=O)NCCC(C)(C)C)c(F)cc3C)c(C)nc2n1", "cell viability": 0.945}, {"smiles": "CC(C)NCC(O)c1ccc(NS(C)(=O)=O)cc1", "note": "(configuration not stated) [Sotalol hydrochloride]", "cell viability": 1.02}, {"smiles": "C#C[C@]1(O)CC[C@H]2[C@@H]3CCc4cc(OC)ccc4[C@H]3CC[C@@]21C", "note": "[Mestranol]", "cell viability": 0.783}, {"smiles": "CN(C)C(=O)c1ccc(S(=O)(=O)c2ccc(NC(=O)[C@@](C)(O)C(F)(F)F)c(Cl)c2)cc1", "cell viability": 0.997}, {"smiles": "COc1nccnc1NS(=O)(=O)c1ccc(NC(=O)/C=C/c2ccc([N+](=O)[O-])s2)cc1", "note": "[Necrosulfonamide]", "cell viability": 0.903}, {"smiles": "CCOc1ccccc1C(N)=O", "note": "[2-Ethoxybenzamide]", "cell viability": 1.19}, {"smiles": "N[C@@H]1CCCN(c2c(/C=C3\\SC(=O)NC3=O)cccc2-c2ccccc2)C1", "cell viability": 0.933}, {"smiles": "CO[C@H]1C[C@@H]2CC[C@@H](C)[C@@](O)(O2)C(=O)C(=O)N2CCCC[C@H]2C(=O)O[C@H]([C@H](C)C[C@@H]2CC[C@@H](O)[C@H](OC)C2)CC(=O)[C@H](C)/C=C(\\C)[C@@H](O)[C@@H](OC)C(=O)[C@H](C)C[C@H](C)/C=C/C=C/C=C/1C", "note": "[Rapamycin]", "cell viability": 0.861}, {"smiles": "CNC(=O)c1c(C)oc2cc(Oc3ncnc4cc(OC)c(OC)cc34)ccc12", "note": "[Fruquintinib]", "cell viability": 0.933}, {"smiles": "N#Cc1ccc2[nH]c(O)c(-c3ccc(CN4CCOCC4)cn3)c2c1", "cell viability": 0.939}, {"smiles": "Oc1ccc(Nc2nc(-c3ccc(Cl)cc3)cs2)cc1", "cell viability": 0.973}, {"smiles": "COc1cc2ncnc(Nc3ccc(Cl)cc3F)c2cc1OC", "cell viability": 0.865}, {"smiles": "O=[N+]([O-])c1cc(C(F)(F)F)cc([N+](=O)[O-])c1NNC(=S)Nc1ccc(F)cc1", "cell viability": 1.07}, {"smiles": "O=C1O[C@H]2[C@@H]3OC(=O)c4cc(O)c(O)c(O)c4-c4c(cc(O)c(O)c4O)C(=O)OC[C@H]2O[C@@H](OC(=O)c2cc(O)c(O)c(O)c2)[C@@H]3OC(=O)c2cc(O)c(O)c3c2[C@@H]2C1=CC(=O)[C@](O)(O3)C2(O)O", "note": "[Geraniin]", "cell viability": 1.09}, {"smiles": "COc1ccc(/C=C\\c2cc(OC)c(OC)c(OC)c2)cc1OP(=O)(O)O", "note": "[Fosbretabulin Disodium]", "cell viability": 0.561}, {"smiles": "CCS(=O)(=O)c1ccc2oc(-c3ccc4ccccc4c3)nc2c1", "note": "[Ezutromid]", "cell viability": 0.954}, {"smiles": "COC(=O)c1ccc2c(c1)NC(=O)/C2=C(\\Nc1ccc(N(C)C(=O)CN2CCN(C)CC2)cc1)c1ccccc1", "note": "[Nintedanib]", "cell viability": 0.783}, {"smiles": "C[C@@H]1O[C@@H](O[C@@H]2[C@@H](O)[C@H](OCCc3ccc(O)c(O)c3)O[C@H](CO)[C@H]2OC(=O)/C=C/c2ccc(O)c(O)c2)[C@H](O)[C@H](O)[C@H]1O", "note": "[Verbascoside]", "cell viability": 1.12}, {"smiles": "O=C(O[C@@H]1Cc2c(O)cc(O)cc2O[C@@H]1c1cc(O)c(O)c(O)c1)c1cc(O)c(O)c(O)c1", "note": "[(-)-Epigallocatechin Gallate]", "cell viability": 0.875}, {"smiles": "N#Cc1ccc2ncnc(NC3CCC(N4CCOCC4)CC3)c2c1", "note": "(configuration not stated)", "cell viability": 1.12}, {"smiles": "CC(C)C[C@H](NC(=O)CNC(=O)c1cc(Cl)ccc1Cl)B(O)O", "note": "[Ixazomib]", "cell viability": 0.28}, {"smiles": "CNC[C@H](O)c1cccc(O)c1", "note": "[Phenylephrine hydrochloride]", "cell viability": 1.07}, {"smiles": "Cc1nc(Nc2n[nH]c3c2CN(C(=O)N[C@H](CN(C)C)c2ccccc2)C3(C)C)c2sccc2n1", "cell viability": 0.935}, {"smiles": "CCC(=O)NS(=O)(=O)c1ccc(-c2c(-c3ccccc3)noc2C)cc1", "note": "[Parecoxib]", "cell viability": 0.828}, {"smiles": "CCOc1ccn(-c2ccc(F)cc2)c(=O)c1C(=O)Nc1ccc(Oc2ccnc(N)c2Cl)c(F)c1", "cell viability": 0.906}, {"smiles": "CSc1cccc(Nc2ncc3cc(-c4c(Cl)cccc4Cl)c(=O)n(C)c3n2)c1", "cell viability": 0.665}, {"smiles": "O=C(NOCCO)c1cc(CN2OCCCC2=O)c(F)c(F)c1Nc1ccc(I)cc1F", "cell viability": 0.84}]}]}
